# Assay results published in the supplement of paper PMC3334620.
# Whole data set: some 33,000 sequences, median “E-score (-0.5 to 0.5)” near -0.043, cut for the highest 2% near 0.37. Some of the results follow.
# Molecular target: T1, Upc2 (UniProt Q12151)
# T1 sequence: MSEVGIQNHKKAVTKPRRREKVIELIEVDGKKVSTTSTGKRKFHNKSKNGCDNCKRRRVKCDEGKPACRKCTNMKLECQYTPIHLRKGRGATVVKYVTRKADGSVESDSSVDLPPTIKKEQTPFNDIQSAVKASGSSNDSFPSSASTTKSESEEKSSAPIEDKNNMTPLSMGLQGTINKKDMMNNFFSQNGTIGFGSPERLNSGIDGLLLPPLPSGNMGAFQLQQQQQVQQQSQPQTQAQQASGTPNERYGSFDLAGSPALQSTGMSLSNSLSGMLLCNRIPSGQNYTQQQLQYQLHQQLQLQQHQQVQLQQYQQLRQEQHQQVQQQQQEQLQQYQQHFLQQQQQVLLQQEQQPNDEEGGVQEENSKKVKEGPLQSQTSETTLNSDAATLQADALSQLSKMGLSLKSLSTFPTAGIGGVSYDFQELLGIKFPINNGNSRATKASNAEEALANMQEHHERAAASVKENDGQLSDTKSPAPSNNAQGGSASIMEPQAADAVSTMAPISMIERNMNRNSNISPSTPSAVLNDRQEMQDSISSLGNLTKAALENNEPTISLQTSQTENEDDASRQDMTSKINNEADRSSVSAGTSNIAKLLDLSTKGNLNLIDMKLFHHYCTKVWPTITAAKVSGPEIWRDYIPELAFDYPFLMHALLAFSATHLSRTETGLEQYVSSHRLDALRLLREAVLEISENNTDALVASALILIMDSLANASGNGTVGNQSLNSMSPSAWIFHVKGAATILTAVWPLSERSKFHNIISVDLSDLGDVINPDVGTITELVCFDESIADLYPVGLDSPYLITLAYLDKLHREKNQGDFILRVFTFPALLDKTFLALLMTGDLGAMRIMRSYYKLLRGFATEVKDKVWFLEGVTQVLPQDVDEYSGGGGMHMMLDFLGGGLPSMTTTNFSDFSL
# Experiment: PBM E-score (8-mer binding enrichment) (E-score (-0.5 to 0.5)); higher = stronger / more preferred TF binding; most listed sequences are background and not binding sites
# Conditions: protein concentration: 200 nM; construct: GST-full length
# Summary of the method: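 Universal all-10-mer Agilent arrays, double-stranded by primer extension on fresh or once-stripped slides, were probed with about 100-200 nM GST-tagged yeast transcription factors made by PURExpress. Fluorescent anti-GST detected bound protein, and masliner normalised the scans. E-scores from the Universal PBM Analysis Suite were given to each ungapped eight-base word pooled with its reverse complement.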
row,Sequence,PBM E-score
1,AACGACCT,0.386
2,CTGTGTGA,-0.201
3,CATTGCGG,-0.0808
4,TTCATGAA,-0.0797
5,GCGTGTGA,-0.14
6,CGCTTATC,0.161
7,ACCCGTAG,-0.11
8,ACAACCTC,-0.0133
9,CAGGGGCG,-0.25
10,ATCGCAAG,-0.255
11,AAAGCAGG,-0.168
12,GCATCCCA,-0.159
13,GGTTGGTA,0.162
14,CATGGGGG,-0.334
15,TGCCGGCA,-0.104
16,CAGCGCGA,-0.106
17,CGCTACCG,0.1
18,GGTCTCTA,-0.139
19,AGCATAGC,-0.118
20,GGAGTAAC,-0.169
21,AGCGATCA,0.11
22,AAACGGGA,0.369
23,AAAAATCG,0.0206
24,AAGCTCCT,-0.197
25,AAGTTCCG,0.0425

row,Sequence,PBM E-score
1,GTGCAGGA,-0.214
2,TACTGAGA,-0.214
3,ACTTCTTA,0.0217
4,GCCCCGAA,-0.148
5,CTATGATA,-0.0237
6,CAGCTCTA,-0.212
7,TGACCCCA,-0.148
8,GGCTAGCC,-0.266
9,ACGGGCTG,0.0956
10,AGTTAACG,0.331
11,TCGGTAGA,-0.0774
12,CAGTCTAA,0.0641
13,AGATGATG,-0.02
14,ACCCCAGT,-0.132
15,CTTCCATA,-0.192
16,CAGGAAGG,-0.338
17,CAGGTAGA,-0.0845
18,GGCCGTTA,0.145
19,GGGGGGCA,-0.084
20,ACCGGCAC,-0.0782
21,ACAGTGAG,-0.199
22,CTTAGACC,-0.154
23,AATTACCT,0.129
24,CTTAGCTC,-0.13
25,GGGCATTA,-0.0598

row,Sequence,PBM E-score
1,CCTTCCAC,-0.0571
2,GCTCACTA,-0.0903
3,AAAATCTT,-0.0882
4,AGAGGGAG,-0.126
5,AGGGGCTC,-0.17
6,TACCCTCA,-0.177
7,GCCCAGTA,-0.116
8,AAGGTACC,-0.0716
9,GTTACAAA,0.0116
10,CCAGCGCA,-0.221
11,ACTTGTAC,0.259
12,CCTCTTCC,-0.228
13,GACGAACC,0.0416
14,ATGGTAGC,0.124
15,GAGGCACA,-0.218
16,AGGAGGCG,-0.326
17,TAAGCGTA,0.209
18,CGCGGTTC,0.298
19,CCTGCTAC,-0.0996
20,ACAGAACA,0.0969
21,ACTCCGCA,-0.165
22,ATCACAGC,-0.188
23,AATGGGCC,-0.0829
24,CCCTGATC,0.146
25,CTGTCATA,-0.0549

row,Sequence,PBM E-score
1,ACCGGTCG,0.251
2,CCCATCAC,-0.219
3,CGAGAAGC,0.129
4,GCGGAGTA,-0.0716
5,ACCCGGGA,-0.0342
6,CACAATCG,0.196
7,GAAACAGC,-0.0577
8,CCGCTAAC,0.048
9,TAGGCGCA,-0.14
10,CCATGGCA,-0.16
11,GGAGTTAC,-0.0562
12,GACGATTA,0.0842
13,CCGACCCG,0.15
14,GAAGACGC,-0.0866
15,CACCCCGG,-0.245
16,AATCACAC,-0.081
17,AGGTTACT,-0.141
18,CAATATCA,-0.0845
19,GTCAGAAC,0.00961
20,CAGCGGAA,-0.0604
21,CTCAACAG,-0.262
22,CTATCTTA,-0.18
23,GCTAAATA,-0.0133
24,CCGGGTGC,-0.329
25,CAAATGTA,0.105

row,Sequence,PBM E-score
1,GCCCATGA,-0.128
2,GCACGCCC,-0.0756
3,GAGTTTGC,-0.107
4,CTAAGCTC,-0.201
5,ACGGCCCT,0.237
6,ATGGTGCG,0.0453
7,CACTTAAG,-0.0164
8,AATGGCAG,-0.136
9,ACATAACA,0.0799
10,AGGTGACA,-0.192
11,ATATTTGA,-0.00169
12,ATGCCTTA,0.036
13,AGTCACCA,-0.215
14,AATCATGT,-0.00779
15,GGTCCTCA,-0.0879
16,GAGGGGAC,-0.152
17,CGATTAAC,0.198
18,CATTACCG,-0.0304
19,ACAGACCG,0.0177
20,ACACATCA,-0.0896
21,CCCGTCTA,-0.111
22,AGGATTCG,-0.0399
23,AGCTTCGA,-0.185
24,CATGAGTA,-0.0577
25,TCTGGACA,-0.0399

row,Sequence,PBM E-score
1,ACTGTCTC,-0.0331
2,ACTTAAGT,-0.0569
3,ATTGTGCG,0.129
4,ACAGAGCG,-0.0821
5,CGCGGCCC,-0.0751
6,GAGCTGAC,-0.111
7,CTTTCATC,-0.298
8,TCATACGA,0.469
9,CGTTAGGA,0.129
10,CGGTTTAA,0.218
11,CACTATTA,0.00078
12,CATCAGAC,-0.0987
13,ACGCCCAT,0.0847
14,ACCCATGG,-0.276
15,CGATATTA,0.176
16,CCATGAGG,-0.219
17,GCAGAAAA,0.227
18,CGGAAGAC,0.00447
19,CTTTAGCA,-0.25
20,GCCTTAAA,0.109
21,ACATGTGG,-0.168
22,AAGTTGGA,-0.048
23,ACCGTGCA,-0.0181
24,CCAGAATA,-0.00693
25,AAAAACTC,-0.0151

row,Sequence,PBM E-score
1,AACATCTA,-0.118
2,CCAACTAA,-0.114
3,CACGGTCC,-0.146
4,CCACTTCA,-0.1
5,ATTACTGC,-0.0794
6,GTAGAGAA,0.185
7,AGCTCCCA,-0.0529
8,GCGATCGA,0.166
9,ATCAAACG,0.351
10,ACTTCGGC,-0.142
11,ATTGAAAA,0.0582
12,ATCCCGAT,-0.122
13,GCTAATTA,0.159
14,CAGATTCA,-0.241
15,ACCCTTCC,-0.211
16,GTGGTAAA,-0.0449
17,GATTCTGC,-0.114
18,AGGAAATC,0.12
19,ACGTTGCG,0.0848
20,CCACAAAA,-0.0162
21,CCCAACAC,-0.164
22,ACTATAAT,-0.0414
